The source of these data is PubChem BioAssay AID1645882 (National Center for Advancing Translational Sciences (NCATS), 2021).

Molecules are shown by their SMILES. In all, about 16,000 compounds went through this assay and about 120 (0.75%) were called active. Another 4% or so got no clear call; they are omitted. Calls come from the whole dose curve; as a rule, active = well fitted inhibition curve with a large enough effect; inconclusive = small, poorly fitted or top-dose-only effect; inactive = no such curve, though single readings can be large or run the other way. This is one part of the list.

Sequence of UniProt O95398 (O95398 whole entry, looked up): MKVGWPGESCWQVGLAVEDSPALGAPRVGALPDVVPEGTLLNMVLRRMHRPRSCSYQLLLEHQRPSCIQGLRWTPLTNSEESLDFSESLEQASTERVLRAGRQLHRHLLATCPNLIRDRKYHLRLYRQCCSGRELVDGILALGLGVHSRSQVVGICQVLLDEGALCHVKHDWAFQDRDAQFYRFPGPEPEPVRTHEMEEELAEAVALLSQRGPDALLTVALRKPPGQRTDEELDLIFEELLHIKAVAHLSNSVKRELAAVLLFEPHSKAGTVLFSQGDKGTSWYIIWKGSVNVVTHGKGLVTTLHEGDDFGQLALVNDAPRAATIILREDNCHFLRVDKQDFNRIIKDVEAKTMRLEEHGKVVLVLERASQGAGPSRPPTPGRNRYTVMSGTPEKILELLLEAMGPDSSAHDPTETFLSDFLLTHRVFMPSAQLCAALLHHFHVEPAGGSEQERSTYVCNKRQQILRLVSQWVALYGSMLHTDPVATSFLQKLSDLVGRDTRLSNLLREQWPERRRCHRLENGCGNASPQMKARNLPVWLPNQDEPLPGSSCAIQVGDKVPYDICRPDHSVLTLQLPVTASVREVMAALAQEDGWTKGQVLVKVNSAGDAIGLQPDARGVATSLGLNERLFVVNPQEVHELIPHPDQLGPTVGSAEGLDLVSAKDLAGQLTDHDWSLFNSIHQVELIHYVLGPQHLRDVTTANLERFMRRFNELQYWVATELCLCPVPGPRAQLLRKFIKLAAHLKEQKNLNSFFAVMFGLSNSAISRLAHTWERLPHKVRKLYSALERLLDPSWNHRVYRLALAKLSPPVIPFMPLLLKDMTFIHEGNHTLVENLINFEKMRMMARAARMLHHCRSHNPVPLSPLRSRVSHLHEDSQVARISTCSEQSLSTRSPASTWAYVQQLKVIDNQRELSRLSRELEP

In this assay the target is Rap guanine nucleotide exchange factor 3 (Homo sapiens) (UniProt O95398). Put plainly: Validation qHTS for antagonist of cAMP-regulated guanine nucleotide exchange factor 3 (EPAC1).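 Note: plate controls were DMSO for no effect and ATA control for full effect; nearly all actives have a fitted effect of over 75% in size.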 Conditions: EPAC1 Rap1B-BODIPY-GDP exchange, fluorescence; series mostly up to 150 µM; activity change, negative = inhibition: at the top concentration. The essentials:
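Nucleotide exchange followed as fluorescence loss when BODIPY-GDP leaves Rap1B (480 nm excitation, 540 nm emission), read at 5 min intervals over 30 min. Reaction: 100 nM EPAC1, 250 nM RAP1B-BODIPY-GDP, 50 uM GDP; ATA and DMSO define normalization.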
For orientation: In qHTS, concentration-response curves come from the screen itself.
For `COc1cc2c(cc1OC)C1CCC3=C([C@H](C)OC3=O)N1CC2` (some centres undefined), the “activity change, negative = inhibition” value was inactive: 28%.
Consider `CC(=O)OCC1=C(C(=O)O)N2C(=O)C(NC(=O)Cc3cccs3)C2SC1` (centres undefined), for which the “activity change, negative = inhibition” value was inactive: 17.2%.
Regarding `c1ccc(CNc2cc(-c3cccnc3)ncn2)cc1`, the “activity change, negative = inhibition” value was inactive: 17.2%.
Regarding `CN(C)c1ccc(/C=C/c2sc3ccccc3[n+]2CCCCBr)cc1`, the “activity change, negative = inhibition” value is inactive: 12%.
Then `COC(=O)N1CCC2(CC1)CCN(c1cccc(-c3ccccc3)c1)CC2`, with inactive: -19.1%; and `O=c1cc(-c2ccc(O)cc2)oc2cc(O)cc(O)c12`, with “inactive”; and `COc1ccccc1-c1nc(NCCc2cnc[nH]2)c2ccccc2n1`, with inactive: -13.3%.
Turning to `COc1cccc(Cn2c(=O)c(CCc3ccccc3)nc3cnc(N(C)C)nc32)c1`, the “activity change, negative = inhibition” value is inactive: 26.9%.
Then `O=C1CC[C@@H]2C[C@@]3(C[C@@H]4CCN1[C@H]24)Nc1cc([N+](=O)[O-])ccc1NC3=NCc1ccccc1`, with inactive: 7.89%; and `Cc1cccc(CNc2ncncc2-c2cccc(C#N)c2)c1`, with inactive: 18.4%.
Turning to `O=C(NCCc1ccccc1)[C@@H]1CC=C[C@@H]2CCN(C3CCCCC3)C(=O)[C@@H]21`, the “activity change, negative = inhibition” value was inactive: -26.3%.
Turning to `C[C@H](CCC(=O)NCC(=O)O)C1CC[C@H]2C3CC[C@@H]4C[C@H](O)CC[C@]4(C)C3C[C@H](O)[C@]12C` (some centres undefined), the “activity change, negative = inhibition” value was inactive: 42.4%.
For the compound `COCc1ccc(CN2Cc3ccccc3OC(c3ccccc3F)C2)o1` (centres undefined), the “activity change, negative = inhibition” value is inactive: 2.35%.
Then `CC(C)NC[C@@H](O)COc1ccc(CCOCC2CC2)cc1`, with inactive: 11.9%; and `COc1ccc(CN2CCC3(CCC(CNC(=O)c4ccco4)O3)CC2)cc1OC` (centres undefined), with inactive: 9.2%.
Then `CC(C)NCC(O)COc1ccc(COCCOC(C)C)cc1` (centres undefined), with “inactive”; and `COc1ccccc1C(=O)N[C@@H]1c2ccccc2C2(CCN(C(=O)c3ccnn3C)CC2)[C@H]1OC`, with inactive: 22.6%; and `Nc1nc(=S)c2ncn([C@@H]3O[C@H](CO)[C@@H](O)[C@H]3O)c2[nH]1`, with inactive: 24.9%.
Then `c1csc(CNc2cc(-c3ccoc3)ncn2)c1`, with inactive: 7.38%; and `CC1OC(OCC2OC(Oc3c(-c4ccc(O)c(O)c4)oc4cc(O)cc(O)c4c3=O)C(O)C(O)C2O)C(O)C(O)C1O` (centres undefined), with inactive: -18.2%; and `C#CCCCCCCCCCCCC(O)CC(O)CO` (centres undefined), with inactive: -2.07%.
For `CC[C@H]1OC(=O)[C@H](C)[C@@H](O[C@H]2C[C@@](C)(OC)[C@@H](O)[C@H](C)O2)[C@H](C)[C@@H](O[C@@H]2O[C@H](C)C[C@H](N(C)C)[C@H]2O)[C@](C)(O)C[C@@H](C)[C@@H]2N[C@@H](COCCOC)O[C@@H]([C@H]2C)[C@]1(C)O`, the “activity change, negative = inhibition” value was inactive: 30%.
Then `COc1ccccc1-c1ccnc(-n2ncc(C(=O)NCCc3ccncc3)c2C)n1`, with inactive: 9.11%; and `COc1ccccc1-n1cc(C(=O)NCCN2Cc3ccccc3OC(c3ccsc3)C2)cn1` (centres undefined), with inactive: 0.854%; and `COC(C)C(C(=O)OCC1=CCN2CC[C@H](O)[C@@H]12)C(C)C` (some centres undefined), with inactive: 25.2%.
Then `CN(C)c1ccc(-c2cc(NCc3cccnc3)ncn2)cc1`, with inactive: 4.33%; and `Cc1sc2ccccc2[n+]1CC(=O)c1ccc(F)cc1`, with inactive: 11%.
Then `COc1ccc2[nH]cc(CCNc3ncncc3-c3ccccc3C(F)(F)F)c2c1`, with inactive: -17.2%; and `NC(N)=Nc1nc(CSCC/C(N)=N\S(N)(=O)=O)cs1`, with inactive: 17.2%.
For the compound `CC(C)=CCCC(C)CCO` (centres undefined), the “activity change, negative = inhibition” value was inactive: -4.05%.
Then `CN(C)c1cc(-c2cccc(NS(C)(=O)=O)c2)ncn1`, with inactive: 12.6%.
Regarding `CCCCC[C@H](O)/C=C/[C@@H]1[C@@H](C/C=C\CCCC(=O)O)[C@@H](O)C[C@@H]1O`, the activity change, negative = inhibition is inactive: 8.34% [at 15.3 µM].
In the case of `COc1ccc2[nH]cc(CCNc3ncncc3-c3ccccc3Cl)c2c1`, the “activity change, negative = inhibition” value is inactive: -17%.
Then `Nc1nc(Cl)nc2c1ncn2[C@@H]1O[C@H](CO)[C@@H](O)[C@@H]1F`, with inactive: 17.6%; and `CCCCCCCCCCCCCCCCOCC(CO)OC(C)=O` (centres undefined), with inactive: 7.67% [at 15.3 µM].
Then `Cc1oc(-c2ccccc2NC(=O)c2ccccc2)nc1CNC(=O)C1CC(=O)OC12CCCCC2` (centres undefined), with inactive: -11.7%.
Then `COc1cc2ccc(=O)oc2c(OC)c1OC`, with inactive: 3.39%.
`CC(C)C(=O)OCC(=O)[C@@]12O[C@H](C3CCCCC3)O[C@@H]1C[C@H]1[C@@H]3CCC4=CC(=O)C=C[C@]4(C)[C@H]3[C@@H](O)C[C@@]12C`: the “activity change, negative = inhibition” value is inactive: 9.32%.
Then `N#CCCn1c(=O)c(-c2ccc(F)cc2)nc2cnc(OCc3ccccc3)nc21`, with inactive: 12.4%; and `O=C(NCc1cccnc1)c1cnn(-c2nccc(-c3cccs3)n2)c1C1CC1`, with inactive: 5.69%.
Then `CN(C)C(=O)c1ccc(-c2ccc3ncnc(N4CCOCC4)c3c2)cc1`, with inactive: 1.04%; and `Cc1ccc(C(=O)Nc2cccc(-c3nc(CNC(=O)C4(C)CC4)c(C)o3)c2)s1`, with inactive: 18.6%.
Then `Cc1cc(-c2ccnc(-n3ncc(C(=O)N(C)CC(O)c4ccccc4)c3C)n2)c(C)s1` (centres undefined), with inactive: 14%; and `CC(N)=O`, with inactive: 7.69% [at 75.8 µM]; and `CN1CC[C@H](c2c(O)cc(O)c3c(=O)cc(-c4ccccc4Cl)oc23)[C@H](O)C1`, with inactive: 29.5%.
Consider `CCCCCCCCCCCCCCCCCCOC[C@H](COP(=O)([O-])OCC[N+](C)(C)C)OC(C)=O`, for which the activity change, negative = inhibition is inactive: -3.64% [at 15.3 µM].
Then `O=C(C[N+]12CCCc3cccc(c31)CCC2)c1ccccc1`, with inactive: 25.4%.
Consider `O=C([C@@H]1C[C@@H](Sc2nc3ccccc3[nH]2)CN1Cc1ccc(C(F)(F)F)cc1)N1CCN(c2ccccc2F)CC1`, for which the “activity change, negative = inhibition” value was inactive: 7.98%.
Turning to `CCCCCCCCCC[n+]1ccc(/C=C/c2c(C)[nH]c3ccccc23)cc1`, the “activity change, negative = inhibition” value is inactive: -27.1%.
